Measurements as given in ChEMBL document CHEMBL4888484, “Replenishing the malaria drug discovery pipeline: Screening and hit evaluation of the MMV Hit Generation Library 1 (HGL1) against asexual blood stage Plasmodium falciparum ,using a nano luciferase reporter read-out” (2022).
Hit rate of the full screen: of about 150,000 compounds, about 540 (0.36%) showed an effect of 50% or more. The list shows a part of the results.

These molecules were tested on Plasmodium falciparum (assay: Primary screen in NF54 nanoGlo assay, in single point, at 2uM, 72h; a lower Z score goes with more inhibition). Conditions: timepoint 72 hour.
Assay type: functional, Erythrocyte

Row | SMILES | % Inhibition [%] | Z score
1 | COc1ccc(CC(=O)N2C[C@@H](CN3CCOCC3)[C@@H](CO)C2)cc1OC | -6 | 1.05
2 | CCc1ccc(NC(=O)C2CCCCC2C(=O)OCc2ccc(F)cc2)cc1 (stereo not drawn) | -9 | 1.21
3 | COc1ccc(OCC(=O)N(C)[C@H](c2ccc(C)cc2)c2c[nH]c3ccccc23)cc1 | -6 | 1
4 | Cn1ccnc1-c1cn(C[C@@H](CO)Cc2ccsc2)nn1 | -8 | 1.47
5 | O=C(c1cc2c(s1)CCCC2)N1CCc2ccccc21 | -13 | 2.23
6 | CO[C@H]1CCN(CCCC(=O)c2ccc(F)cc2)C1 | -14 | 1.79
7 | O=C(Cc1ccc2c(c1)OCC2)Nc1ccc2c(c1)C(=O)N1CCC[C@H]1C(O)=N2 | 2 | -0.28
8 | Cc1nn(C)c2cc(NC(=O)N3CCO[C@H](C4CC4)C3)ccc12 | -7 | 1.15
9 | FC(F)(F)[C@]1(c2nc(-c3ccccc3)no2)CCNC1 | 23 | -3.05
10 | CCc1nc([C@@H]2CCCN2CCC(=O)N2CCOCC2)no1 | -8 | 0.85
11 | COc1ccc(CN2CCC[C@H](CNC(=O)c3cccs3)C2)c(F)c1 | 2 | -0.24
12 | COc1ccccc1CNC(=O)C(=O)N1CCN(C(c2ccccc2)c2ccccc2)CC1 | -3 | 0.53
13 | COCC(C)(C)NC(=O)c1coc(COc2ccc3ncccc3c2)n1 | 0 | 0.03
14 | CC1CN(C(=O)c2ccc3[nH]cnc3c2)C(C)CO1 (stereo not drawn) | -13 | 1.6
15 | CCOC(=O)c1nn(Cc2ccc(OC)cc2)c2c1CN(C(=O)[C@H]1CCOC1)CC2 | -8 | 1.04
16 | Cc1ncccc1C(=O)NCCc1csc(N2CCCC2)n1 | -2 | 0.34
17 | Cc1cc(C(=O)N(Cc2ccsc2)CC(C)C)[nH]n1 | -13 | 1.96
18 | C[C@H](On1nnc2ccc(Cl)cc21)C(=O)NC(=O)NC1CCCCC1 | -4 | 0.73
19 | C=C(C)C(=O)Nc1cccc(C(C)=O)c1 | -4 | 0.57
20 | Cc1cc(C(C)NC(=O)C(C)(O)CN2C(=O)NC(C)(C)C2=O)c(C)s1 (stereo not drawn) | -6 | 0.97
21 | O=C(NCCc1ccncc1)c1cc(Cl)c[nH]1 | -4 | 0.75

Row | SMILES | % Inhibition [%] | Z score
22 | C[C@@H](Cc1ccc2c(c1)CCO2)NC(=O)Nc1cccs1 | 3 | -0.48
23 | Cc1ccc(F)cc1NC(=O)Cn1c(C)nc2c(c1=O)CN(Cc1ccccc1)CC2 | -12 | 1.6
24 | COc1ccccc1NC(=O)[C@@H]1CC(C)(C)OC1=O | -14 | 1.63
25 | NCC(F)(F)CNC(=O)N1CC[C@H](n2ncc3ccccc32)C1 | -16 | 2.95
26 | Cc1nn(CC(N)=O)c(C)c1-c1ccc(C(=O)NC[C@H]2CCCO2)cc1 | 2 | -0.35
27 | CC(=O)c1c(C)[nH]c(C(=O)C(C)N2CCCC2c2ccc3c(c2)OCCCO3)c1C (stereo not drawn) | -6 | 1
28 | O=C(Nc1ccc2c(c1)OCCO2)c1cncc(Br)c1 | -27 | 3.65
29 | Cn1cc(Cl)c(C(=O)NCc2cncn2C2CC2)n1 | -6 | 1.27
30 | CC1C(C)N(Cc2ccccc2)C(C)CN1c1nc2c(cnn2C)c(=O)[nH]1 (stereo not drawn) | 16 | -1.92
31 | Cc1cc(-n2c(C)cc(C(=O)Cn3c(C(F)(F)F)ccc(C(N)=O)c3=O)c2C)no1 | 38 | -4.59
32 | CCCN(Cc1cc(-c2ccccc2)on1)C(C)=O | -5 | 0.62
33 | O=C(CCS(=O)(=O)c1ccc(Cl)cc1)Nc1ccc(N2CCOCC2)cc1 | -13 | 1.6
34 | Cc1ccsc1CN(CC(C)C)C(=O)c1cc2ncc(CCO)cn2n1 | -7 | 0.72
35 | Cc1cc(CNC(=O)NCC2(c3ccccc3)CC2)no1 | -4 | 0.57
36 | O[C@@H](CN1CCN(c2nccs2)CC1)C1CCCCC1 | -2 | 0.31
37 | NS(=O)(=O)c1ccc(-n2nc(-c3ccccn3)nc2C2CCC2)cc1 | -7 | 0.8
38 | CO[C@@H]1COC[C@H]1n1cc(CNC2CC(C)c3c(C)cccc32)nn1 (stereo partly drawn) | -11 | 1.49
39 | Cn1ccnc1C1(O)CN(S(=O)(=O)c2ccccc2F)C1 | -8 | 1.59
40 | O=S(=O)(c1ccc2ccccc2c1)n1ccnc1 | -34 | 3.97
41 | CCCN1C(=O)c2cc3oc(C)cc3n2C[C@@]1(C)C(=O)NC1CCCCC1 | 11 | -2.09
42 | Cc1cc(F)cc2c1N(CC(=O)NC1CCOCC1)CCC2 | -6 | 1.19

Row | SMILES | % Inhibition [%] | Z score
43 | CCCN(C(=O)NCC1CCCO1)C1C2CCOC2C1(C)C (stereo not drawn) | 11 | -1.27
44 | CCC[C@H](C)c1nc(N2CCN(C(=O)Cc3ccc(OC)cc3)CC2)c2cnn(-c3ccccc3)c2n1 | 46 | -6.22
45 | CC(=O)N[C@H]1C[C@@H](c2cccc(Cn3cccn3)c2)O[C@@H](c2ccccc2)C1 | 4 | -0.87
46 | O=C1[C@H](c2ccccc2)CC2(CCN(Cc3ncc[nH]3)CC2)CN1C1CC1 | 3 | -0.61
47 | COC[C@@H](c1ccccn1)N(C)C(=O)CCC(=O)Nc1nncs1 | -11 | 1.38
48 | Cc1c(Cl)ccc2c(C(=O)N3CCC(C)CC3)cc(-c3ccc4c(c3)OCO4)nc12 | -10 | 1.36
49 | Cc1ccc(CC(=O)Nc2cc(C(F)(F)F)n(C)n2)cn1 | -6 | 0.61
50 | CC(C)N1C(=O)CN(C(=O)c2cc3cccn3cn2)CC1(C)C | 1 | -0.12
51 | CC1(C)CCC[C@@H]1NC(=O)NCCc1cnn(-c2ccccc2)c1 | -10 | 1.35
52 | CC(C)C(NC(=O)COc1ccccc1)C(=O)NCC(c1ccccc1Cl)c1c[nH]c2ccccc12 (stereo not drawn) | 39 | -3.28
53 | CO[C@H]1CN(c2cccc(F)c2)C12CCN(C(=O)Cc1ccccc1)CC2 | -3 | 0.34
54 | C[C@@H](c1ccccc1)n1cnc2c1c(=O)n(C1CCCCC1)c(=O)n2-c1ccccc1Cl | -10 | 0.9
55 | CN(CC1(CO)CCOCC1)C(=O)Nc1cc(F)cc(Cl)c1 | -8 | 0.75
56 | Fc1cccc2ncnc(N3CCN(C4CC4)CC3)c12 | -2 | 0.3
57 | CCn1c(=O)sc2cc(S(=O)(=O)N3CCC(C(=O)Nc4ccccc4F)CC3)ccc21 | 7 | -0.88
58 | O=C(O)[C@@]1(Cc2ccc(F)cc2F)CCCN(c2cnccn2)C1 | 0 | 0.06
59 | Cn1nccc1C1(O)CCN(c2ncncc2Cl)CC1 | 3 | -0.37
60 | OCCN1CCN(C2CCN(Cc3cnc(NCc4ccccc4)nc3)CC2)CC1 | 4 | -0.54
61 | CCC(=O)NCc1csc(C2CCN(C(=O)c3cccs3)CC2)n1 | -16 | 2.1
62 | CC(C)(C(=O)NCCS(N)(=O)=O)c1ccc(Cl)cc1F | -8 | 0.83
63 | O=C(NCc1ccnc(N2CCCC2=O)c1)c1nc(-c2cccs2)cs1 | -3 | 0.39

Row | SMILES | % Inhibition [%] | Z score
64 | CC(C)OCC(=O)Nc1ncc2[nH]ccc2c1Br | -12 | 2.02
65 | COc1ccc2c(c1)CCN=C2C[C@H]1CN(C(=O)Cc2ccccc2)CC[C@H]1CC(=O)O | 20 | -2.32
66 | Cc1ccc(CN2C[C@]34C=C[C@H](O3)C(C(=O)N(C)C(C)C)C4C2=O)cc1C (stereo partly drawn) | 6 | -0.78
67 | Cc1nnc(CN(C)Cc2c[nH]cn2)s1 | 4 | -0.58
68 | Cn1ccnc(NC(=O)NCc2ccc(C3CC3)cc2)c1=O | 1 | -0.15
69 | Cc1ccnc(N2CCc3[nH]nc(C4CC4)c3C2)n1 | -20 | 3.7
70 | CCc1ccc(S(=O)(=O)Nc2nc3n(c2C(=O)c2ccc(OC)cc2)CCC3)cc1 | -5 | 0.84
71 | Cn1ccc2c(-c3cnc4c(C(N)=O)cnn4c3)ccnc21 | 8 | -1.33
72 | COc1cccc(C(=O)N2C[C@@H]3CN(C(C)C)C[C@]3(C(=O)N3CCCC3)C2)c1C | -23 | 3.09
73 | CC1(C)C[C@@](C)(c2ccccc2)c2ccccc2N1C(=O)c1ccccc1Cl | -10 | 1.36
74 | Cc1nc(C)c(CN(CC(F)(F)F)C2CC2)s1 | -3 | 0.45
75 | CCOC(=O)c1nc([C@H](CC(C)C)NC(=O)Nc2ccccn2)n[nH]1 | -3 | 0.26
76 | Cc1cc(NC(=O)N(CCO)Cc2ccco2)ccc1N1CCCC1=O | -1 | 0.28
77 | Cn1cc(CCC(=O)N2CCCN(C3CCCCC3)CC2)cn1 | 15 | -1.85
78 | CC(C)Cc1ccc(CC(=O)NC[C@H](O)C2CCOCC2)cc1 | -13 | 1.76
79 | CN1C(=O)CN(C(=O)[C@@H]2CCCO2)c2ccccc21 | -13 | 1.26
80 | Cc1nc(Cn2cc(Br)ccc2=O)oc1C | -14 | 1.3
81 | Cc1csc(C(=O)NC[C@H]2CCN2C2CCOCC2)n1 | -10 | 1.38
82 | Cc1sc(C(N)=O)cc1S(=O)(=O)N1CCOc2cccc(F)c21 | -10 | 1.57
83 | Nc1nc2c(c(N[C@H]3C[C@@H](c4cc(=O)[nH]cn4)C3)n1)CCC2 | -9 | 1.66
84 | FC(F)c1cc(C2CC2)n([C@H]2CCCOC2)n1 | -16 | 1.44
